This note sets out measurements from PubChem BioAssay AID1963576 (National Center for Advancing Translational Sciences (NCATS), 2024).

Out of some 46,000 compounds screened, about 60 (0.1%) were called active. Not shown: some 3% with an inconclusive outcome. Calls come from the whole dose curve; as a rule, active = well fitted inhibition curve with a large enough effect; inconclusive = small, poorly fitted or top-dose-only effect; inactive = no such curve, though single readings can be large or run the other way. Some of the results follow.

A short description of the experiment: Primary qHTS assay for Inhibitors of ovarian cancer metastasis using an organotypic tumor microenvironment (TME) model.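 For activity change, negative = inhibition: plate controls were DMSO wells for no effect and tomatine positive control wells for full effect.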 Note: nearly all actives have a fitted effect of over 65% in size. Conditions: SKOV3ip1-GFP adhesion/invasion on 3D omental model, fluorescence; series mostly up to 45.8 µM; activity change, negative = inhibition: at the top concentration. Put shortly:
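qHTS, 4-pt dose (0.36-46 umol/L); SKOV3ip1-GFP, 1,200 cells/well, no FBS; primary omental fibroblast/mesothelial co-culture 48 h pre-grown; 2 h RT + 16 h 37 C; PBS wash, 4% PFA; GFP count 488/509 nm.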
On the technique in general: In qHTS, concentration-response curves come from the screen itself.
For `COc1cccc(CNC(=O)c2cc(Sc3cccc(Cl)c3)nc3ccccc23)c1`, the “activity change, negative = inhibition” value is inactive: 19.6%.
On to `O=C(NCc1cccc(F)c1)c1ccc(NC(=O)c2nsc3ccccc23)cc1`, for which the “activity change, negative = inhibition” value was inactive: -0.532%.
Still for that read-out and setting: the figure for `COc1ccc(-c2c(C)c3ccc(O)c(CN4CCN(CCO)CC4)c3oc2=O)cc1OC` is inactive: 0.82%.
With `CC(C)(C)OC(=O)N1CCC(c2c(C(=O)NCCc3ccccc3)cnn2-c2ccc(F)cc2F)CC1`, the call was inactive.
As for `Cc1ccc(CCNC(=O)c2c(C)oc3ncn(CC(C)C)c(=O)c23)cc1`, the “activity change, negative = inhibition” value was inactive: -10.8%.
Consider `COc1cc(Cl)c(C)cc1NC(=O)CC(c1ccc(F)cc1)N1Cc2ccccc2C1=O` (stereo unspecified), for which the “activity change, negative = inhibition” value is inactive: 5.58%.
Consider `Cn1c(=O)oc2cc(S(=O)(=O)N3CCC(C(=O)N4CCN(c5ccccc5F)CC4)CC3)ccc21`, for which the compound was called inactive.
Regarding `CCOC(=O)c1c(NC(=O)COc2cccc(C)c2C)sc2c1CCC(CC)C2` (stereo unspecified), the compound was called inactive.
Consider `CCCCS(=O)(=O)c1oc(-c2ccc(F)cc2)nc1S(=O)(=O)c1ccc(C)cc1`, for which the “activity change, negative = inhibition” value is inactive: -8.49%.
With `Cc1c(C(=O)N2CCOCC2)oc2c1-c1nn(CC(=O)NCc3cccc(Cl)c3)cc1CC2`, the compound was called inactive.
On to `Cc1sc(-c2cc3c([nH]c2=O)CC(c2ccccc2)CC3=O)nc1-c1ccc(Cl)cc1` (stereo unspecified), for which the “activity change, negative = inhibition” value is inactive: -14.8%.
Same read-out and setting: the figure for `COc1cccc(NC(=O)CC2Nc3cc(C)c(C)cc3NC2=O)c1` (stereo unspecified) is inactive: 31.7%.
Consider `Cc1ccc(C)c(N2CCN(C(=O)CSCc3ccccc3Cl)CC2)c1`, for which the result was inactive.
As for `COc1ccc(OC)c(S(=O)(=O)Nc2cccc(-c3ccc(N4CCCCC4)nn3)c2)c1`, the “activity change, negative = inhibition” value is inactive: -2.98%.
For the compound `CC(C)(C)c1ccc(C(=O)Nc2onc3c2CCCC3)cc1`, the “activity change, negative = inhibition” value was inactive: -4.25%.
On the same count and under the same terms, the same measure for `CCc1ccc(S(=O)(=O)Nc2cccc(-c3ccc(N4CCOCC4)nn3)c2)cc1`: inactive: -11.3%.
Turning to `CC(C)(C)c1ccc(C(=O)NCC(c2ccc(Cl)cc2)N2CCOCC2)cc1` (stereo unspecified), the “activity change, negative = inhibition” value was inactive: -22.7%.
Take `CCOc1ccc(NS(=O)(=O)c2ccc3c4c(cccc24)C(=O)N3)cc1`: the “activity change, negative = inhibition” value was inactive: -9.81%.
In the case of `Cc1ccc(CNC(=O)CC2Oc3ccc(Cl)cc3NC2=O)cc1` (stereo unspecified), the “activity change, negative = inhibition” value was inactive: 15.9%.
On to `Cc1cccc(NC(=O)CCS(=O)(=O)c2cc(Br)cc3c2N(C(=O)C2CC2)CC3)c1`, for which the “activity change, negative = inhibition” value is inactive: 6.41%.
As for `CCOc1cccc2cc(S(=O)(=O)c3ccccc3F)c(=O)oc12`, the “activity change, negative = inhibition” value is inactive: 2.51%.
As to `CCS(=O)(=O)N1CC(=O)N(c2ccc(Cl)cc2)C(C)(C(=O)NC2CCCCC2)C1` (stereo unspecified), the compound was called inactive.
Turning to `Cc1ccc(CO)cc1Nc1ncnc2onc(-c3ccc(F)cc3)c12`, the “activity change, negative = inhibition” value was inactive: -8.74%.
With `COc1ccc(/C=C/C(=O)Nc2nc(-c3cccs3)ns2)cc1OC`, the outcome was inactive.
Same read-out and setting: the entry for `CC(=O)Nc1ccccc1-c1nc2ccccc2n(CC(=O)Nc2cccc(C(F)(F)F)c2)c1=O` is “inactive”.
For `CC(=O)c1cccc(NC(=O)CSc2nc3ccccc3nc2Cc2ccc(F)cc2)c1`, the “activity change, negative = inhibition” value was inactive: -5.85%.
As for `CCc1ccc(NC(=O)CN(c2cc(C)cc(C)c2)S(=O)(=O)c2c(C)[nH]c(=O)[nH]c2=O)cc1`, the “activity change, negative = inhibition” value was inactive: 4.39%.
As to `CCCOc1cccc(C(=O)Nc2cc(-c3ccccc3)no2)c1`, the result was inactive.
The same measure, in the same setting: the same measure for `CC1=C(C(=O)Nc2ccc(F)cc2F)C2(CCN(C(C)C)CC2)OC1=O`: “inactive”.
Turning to `CCc1cccc(NC(=O)C(Cc2ccccc2)n2cccc2)c1` (stereo unspecified), the “activity change, negative = inhibition” value is inactive: -14.5%.
As for `CCOc1ccc(CNC(=O)c2ccc3c(c2)nc2n3CCOC2)cc1OC`, the “activity change, negative = inhibition” value was inactive: 35%.
Consider `Cc1ccc(C(=O)Nc2c(C)nc3ccccn3c2=O)cc1C`, for which the compound was classed as inactive.
For `COc1ccc(N2CC(NC(=O)c3ccc(S(=O)(=O)N4CCCCC4)cc3)CC2=O)cc1` (stereo unspecified), the “activity change, negative = inhibition” value is inactive: -6.77%.
On the same count and under the same terms, the same measure for `CCN(CC)C(=O)CSc1nc(-c2ccc(C)cc2)nc2c1Cc1c(CO)cnc(C)c1O2`: inactive: 0.355%; for `COc1cccc(-c2nc(SCC(=O)NC3CCCC3)c(-c3ccc(C)cc3)[nH]2)c1`: inactive: -5.23%.
On to `CC1=C(c2ccc(C(C)C)cc2)S(=O)(=O)N=C1N1CCC(C(=O)NCCc2ccco2)CC1`, for which the “activity change, negative = inhibition” value was inactive: -3.46%.
For `Cc1ccc(CNC(=O)c2ccc3nc(SCc4ccc(F)cc4)[nH]c3c2)cc1`, the “activity change, negative = inhibition” value is inactive: -4.4%.
In the case of `COc1ccccc1C(=O)Nc1ccc2oc(-c3cccc4c(Br)cccc34)nc2c1`, the “activity change, negative = inhibition” value was inactive: -20.2%.
Still for that read-out and setting: the same measure for `CCN(c1ccccc1)S(=O)(=O)c1c(-c2ccc(C)cc2)csc1C(=O)OC`: inactive: -9.6%; for `COc1ccc2c(c1)cc1c(=O)n(CC(=O)NC3CC3)nc(C)n12`: inactive: -8.09%; for `COCCNc1nc(NCc2cccc(Cl)c2)c2cnn(C)c2n1`: inactive: -4.46%.
As to `COc1ccc(/C=C/C(=O)Nc2ccc3nc(N4CCC(C)CC4)cc(C)c3c2)cc1`, the “activity change, negative = inhibition” value is inactive: 5.67%.
Regarding `CCCN1Cc2cccc(C(=O)Nc3cccc(C(=O)OCC)c3)c2C1=O`, the compound was called inactive.
Take `CCC1Oc2ccc(Cl)cc2N(CC(=O)NCCc2ccc(Cl)cc2)C1=O` (stereo unspecified): the “activity change, negative = inhibition” value is inactive: 10.5%.
On the same count and under the same terms, the figure for `COc1ccccc1CNC(=O)CCn1c(=O)c2cccn2c2cccnc21` is inactive: -5.88%.
As to `COc1ccc(C2c3cc(OC)c(OC)cc3CC(=O)N2c2ccc(C)c(F)c2)cc1` (stereo unspecified), the call was inactive.
On to `C=Cc1ccc(Cn2c(C)c(CNCc3ccccc3C)c(C(=O)O)c2C)cc1`, for which the “activity change, negative = inhibition” value is inactive: 0.498%.
For `O=C(Cc1csc2nc(-c3ccc(F)cc3)cn12)NCc1ccccc1`, the “activity change, negative = inhibition” value is inactive: -30%.
Still for that read-out and setting: the figure for `O=[N+]([O-])c1cc(-c2nc(-c3ccccc3)no2)ccc1NC1CCCCC1` is inactive: 7.64%.
For `CCN(C(=O)CN1C(=O)COc2ccc(S(=O)(=O)N3CCOCC3)cc21)c1ccc(OC)cc1`, the outcome was inactive.
`Cc1ccc(-c2nnc(Nc3ccc(C(=O)N(C)C)cc3)c3ccccc23)cc1S(=O)(=O)N(C)C`: the outcome was inactive.
For the compound `O=C(Nc1nnc(S(=O)(=O)N2CCCCC2)s1)c1ccccc1Br`, the “activity change, negative = inhibition” value was inactive: 1.03%.
On to `Cc1ccc(NC(=O)c2ccc3c(O)c(S(=O)(=O)c4ccccc4)c(=O)[nH]c3c2)cc1Cl`, for which the “activity change, negative = inhibition” value was inactive: 5.79%.
In the case of `COc1ccc(-c2nc3ccccc3s2)cc1NC(=O)c1ccc(F)cc1`, the “activity change, negative = inhibition” value was inactive: 0.976%.
As for `Cc1cccc(NC(c2ccccc2F)c2ccc3ccc(C)nc3c2O)n1` (stereo unspecified), the “activity change, negative = inhibition” value was inactive: -13%.
On the same count and under the same terms, the figure for `Cc1ccc(OCC(=O)Nc2ccccc2OCc2cc(=O)n3ccccc3n2)cc1C` is inactive: -8.65%; for `COC(=O)c1ccccc1NC(=O)C1CCN(C(=O)N2CC(C)Oc3ccccc32)CC1` (stereo unspecified) it is inactive: 3.09%; for `N[C@@H](C(=O)N[C@@H]1C(=O)N2C(C(=O)O)=C(Cl)CS[C@H]12)c1ccccc1` it is inactive: -3.08%.
Consider `COc1ccc(C(=O)NCC(c2ccc(N(C)C)cc2)N2CCc3ccccc32)cc1OC` (stereo unspecified), for which the call was inactive.
`O=C(COc1ccc(Cl)cc1)OCc1cc(=O)n2nc(C3CC3)sc2n1`: the “activity change, negative = inhibition” value was inactive: -12.5%.
Regarding `O=C(Nc1cccc(F)c1)c1ccc2c(c1)N(Cc1ccccc1)C(=O)c1ccccc1S2(=O)=O`, the “activity change, negative = inhibition” value is inactive: 31.4%.
